According to paper PMC12136788:
The list shows a part of the results.

T1: UNK ZnF1-3 (human, UniProt Q9C0B0 31-174)
T1 sequence: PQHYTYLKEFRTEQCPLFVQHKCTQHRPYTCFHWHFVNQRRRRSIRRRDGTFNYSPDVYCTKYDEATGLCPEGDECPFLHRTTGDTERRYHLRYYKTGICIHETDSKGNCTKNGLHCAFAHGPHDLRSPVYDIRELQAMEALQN

B1: 130301972_130310283_429_3pUTR_ENSMUSG00000026356_ENSMUST00000027602|mouse|control|control (ssRNA)
RNA: GGGAGUUCUACAGUCCGACGAUCGCAUGGUCUCCCACCGCCACAAGAGCCUGGACAUUAAACUGCUGCUGCCUCAGGACUAAGAAGCACUGCUUCCCUUUUGCUCUGCUUGUAUGAACUCUUGCACGGACCCAAACAACAUCACAACAGAGGAUUGAGCAUCA
B2: chr1:58468927:58468928:-_ENSMUSG00000026034_ENSMUST00000148330|mus_mus|mus_mus_mus_hu_False|38_48 (ssRNA)
RNA: GGGAGUUCUACAGUCCGACGAUCAAUUACUGAAAAAGAUGUUCAUUACCUUAGCUAUGUACUUAAUGAACCAAAUUACCCAAACAACAUAAAAUGUUUUACAAAUUAAUGUUAAGAAUUUACAAAGCUGUACAAAAUAACUUACAACAGAGGAUUGAGCAUCA
B3: 108160858_108160978_3285_3pUTR_ENSMUSG00000068747_ENSMUST00000102632|mouse|control|control (ssRNA)
RNA: GGGAGUUCUACAGUCCGACGAUCAGUACAGCCUGAAAGAGCUCAGAAGCAGCCAGUUUUGUCUUUAAUAGGUGUCAGAGCUAGUCAAUUCUCUGCCUCCCUCUUGCCACAAGUUAAAAAUAUUGCCCUGUAAGUUUUCCCUAUCAACAGAGGAUUGAGCAUCA
B4: 6328396_6329179_411_3pUTR_ENSMUSG00000041126_ENSMUST00000109737|mouse|control|control (ssRNA)
RNA: GGGAGUUCUACAGUCCGACGAUCUCUUUCCAAUCAGAGACUUGUGGAUGUGCGGGAUCACGCCGCCCCCGGCUAUGGUGGCCUUGAUAAGAGAAUCCAACUCUUCAUCACCGCGGAUUGCAAGCUGUAAGUGACGUGGGGUGACAACAGAGGAUUGAGCAUCA
B5: chr19:36946997:36946998:+_ENSMUSG00000024811_ENSMUST00000025729|mus_mus|FALSE|FALSE (ssRNA)
RNA: GGGAGUUCUACAGUCCGACGAUCAUAUUUUCCUUUUGCUGCAGCUUCAUGUAAAGGUGUGAACUUCCACAAGUCAGCGACAUUGACUACUGCUCCAUGCUUGACAAGAAGUUCUGCAACUUCAUAGUGUCCAUAAGAACAUGCCAACAGAGGAUUGAGCAUCA
B6: 47913461_47913581_2477_CDS_ENSG00000047849_ENST00000395734|human|control|control (ssRNA)
RNA: GGGAGUUCUACAGUCCGACGAUCGGCAACAGCAGCAGCUGUUGUGGUUUUUGCAACAGUCUGAGUGCUCUUGGACCCAGAUCUGGAGGCUGGGGCAGAAGCUGGCUUGGAUGGUGAGGCCCGCUUCUCAGGAGCCUUUGCAUCCAACAGAGGAUUGAGCAUCA
B7: chr12:84935825:84935826:-_ENSMUSG00000042628_ENSMUST00000048319|mus_mus|motif|central (ssRNA)
RNA: GGGAGUUCUACAGUCCGACGAUCUCCCACUGCAUGCAUAACUCUCCUGGCACAUGAGCCCCGGAUUUAGGCCCUUCUCUGCGGGGGAAGUCUGGGCACUCAUAACUUAGACUCGUUUGGAAACCACCCACCCUGCAACAGUCACAACAGAGGAUUGAGCAUCA
B8: chrX:43605437:43605438:+_ENSG00000189221_ENST00000338702|hu_hu|FALSE|FALSE (ssRNA)
RNA: GGGAGUUCUACAGUCCGACGAUCAAGAAGUUUAAAUCAGCAUUUCCCAAAAGGUGUGUCAGGACUGAGUUAAUCAGUAAGCUAAUAGAAACAACUGCAAUAGACUAGGGAUGAGAUUUCUCAAAGCAGUCUGAUAUAAUAUGCCAACAGAGGAUUGAGCAUCA
B9: chr3:9412954:9412955:+_ENSG00000134077_ENST00000452837|hu_mus|hu_hu_hu_mus_False|38_68 (ssRNA)
RNA: GGGAGUUCUACAGUCCGACGAUCGGUUGAUAUCUCUUCUUUGAUGGCUGGAUUUUCAUAAUAGUCCAAGAUAUGAGAAUCUGAAGUGCUGCUGGCAAACUCUUUUUUACCAUCUUUCUCAUCUGCUUUGUCUCCUUGUCCACACAACAGAGGAUUGAGCAUCA
B10: chr14:89307221:89307222:+_ENSG00000165533_ENST00000346301|hu_mus|hu_hu_hu_mus_False|28_108 (ssRNA)
RNA: GGGAGUUCUACAGUCCGACGAUCUCCUGUCUGAUUAGUGCCAGGGAGCUUCAAAGAUGUGCCAGGGCGUGGGACCUGAGCAAUAGCAUUUUCAUCCAGGAUCAUUUCUGCAAUUCCUUCCUGGUCCACAUCAAUUUCAUCUAUCAACAGAGGAUUGAGCAUCA
B11: chr10:33214929:33214930:-_ENSG00000150093_ENST00000302278|hu_hu|hu_hu_hu_mus_True|8_98 (ssRNA)
RNA: GGGAGUUCUACAGUCCGACGAUCAACAAGUUCAUUGAAUACUUCUCCUCUGUCAGUAAGACUAAGCACAUUUUUGUAGCUAAAUGGGCUGGUGCAGUUUUGUUCACUUGUACAAGGAUUUCUUAGCUUAGCUGGUGUUGUGCUCAACAGAGGAUUGAGCAUCA
B12: 75008230_75008350_2263_CDS_ENSMUSG00000034593_ENSMUST00000123128|mouse|control|control (ssRNA)
RNA: GGGAGUUCUACAGUCCGACGAUCCUGGCCAGGUCGGCCCUUGGUGGGCUUUACAGGAACUCGAGUGAGAGGAGUGCGCCCUGAGGAGGUGGCAGAGGUGGGACUGAUGGCCUUCUCAUCAUCUUGAAAUAGCUCUGGUAGCAUCAACAGAGGAUUGAGCAUCA
B13: 152117304_152117424_2211_3pUTR_ENSMUSG00000070348_ENSMUST00000093962|mouse|control|control (ssRNA)
RNA: GGGAGUUCUACAGUCCGACGAUCUCCCCAAUCUCCUUGUCCAGGUAAUGCCAUCAUGGUUCCUACUUCCAAACACCAGCUGGCACCAAAGGAUCCCUUCAACUUUGCAGGACAGAUCCCGGUGGUGCGAGAACAGAGUUCUCUCAACAGAGGAUUGAGCAUCA
B14: chr5:72858467:72858468:-_ENSG00000164331_ENST00000296785|hu_mus|FALSE|FALSE (ssRNA)
RNA: GGGAGUUCUACAGUCCGACGAUCUUUAAAUAAGACAGAUGCCACCUCCAGGUCAGAGUUAACUUGAUCUUGAAUAUUUUUACUAUCCUCUUCAUUUAAGGACUUCACGAAUCGAGAACACACGUUCAUAUCAAAUCGGUUUGGCAACAGAGGAUUGAGCAUCA
B15: chr2:69032557:69032558:-_ENSMUSG00000005233_ENSMUST00000005365|mus_hu|FALSE|FALSE (ssRNA)
RNA: GGGAGUUCUACAGUCCGACGAUCAUUGGCAAGAAAAGCUGAAAAAUUGUUGGUCUUCCUUACAUUCUCUUGAAAUUCUGCUAGGCCCUCAAGAUGAGGGGCACUAUCUGACACUUCAUAGUCCCUUGCUUCAUUGAGAUGUAACAACAGAGGAUUGAGCAUCA
B16: chr4:76721835:76721836:+_ENSG00000138768_ENST00000264904|hu_mus|hu_hu_hu_mus_True|48_98 (ssRNA)
RNA: GGGAGUUCUACAGUCCGACGAUCGUUUGGCUGGGGUUCUGAGAUGCCUCUGGAAUAUAACUCAUGUUUGCUAAUAAAUCCUAGUUUUCUAUGAAAUUUCUCUUUGCCAAUCCUCUUCUCUAUUAGUUGCUUUAGUUUCUCUUUCAACAGAGGAUUGAGCAUCA
B17: 99248344_99248570_1061_CDS_ENSMUSG00000019761_ENSMUST00000103131|mouse|control|control (ssRNA)
RNA: GGGAGUUCUACAGUCCGACGAUCACCCUGAACAGUACGUCUCAAUUCAGUGAUUUCAGACUUAUGGCUGGACAUUUGUUCAAUGUUGCUGUCGAUUUCUGUGGUGAGUUCCUUGCUCUUCUGAUUGAACCACUCUUCAGCAUCCAACAGAGGAUUGAGCAUCA
B18: chr16:38184571:38184572:+_ENSMUSG00000022812_ENSMUST00000023507|mus_hu|FALSE|FALSE (ssRNA)
RNA: GGGAGUUCUACAGUCCGACGAUCCAGCUGAUACAUAUACAACUUGACAUAAAUCACAGGGAGCGUCUGUUUGGCUCGACUAUAGUGUCUGGCAACUCUGUAUACUGUUUCCGGAACAUAGUCCAGCACCAGAUUAAGAUAGACCAACAGAGGAUUGAGCAUCA
B19: 79779014_79781414_1272_CDS_ENSG00000148606_ENST00000372371|human|control|control (ssRNA)
RNA: GGGAGUUCUACAGUCCGACGAUCUUUGUUUACCUUCUCAGGAAAAGUUAGAAUUUUGGCCACAUGAACUGGCACAGCUACCUCAUCAAUCCGGAGGUUGGGGUCGGGCGAGAUGACUGUUCUGCCAGAAAAAUCCACUCUCUUCAACAGAGGAUUGAGCAUCA
B20: chr19:16212804:16212805:+_ENSG00000167460_ENST00000300933|hu_mus|hu_hu_hu_mus_False|58_88 (ssRNA)
RNA: GGGAGUUCUACAGUCCGACGAUCAACAAUUCUGGAGUGAAGGAAAGCAUCAAGGAUGAACAGCAUUAAAGCUCAGUAUUACUAUAUAUGGGCAACAAUGAUCACCCCAGCAUUCUCGCUUGGAAUGCUUAAAGACAAUCUGUUCAACAGAGGAUUGAGCAUCA
B21: chr8:104447970:104447971:+_ENSG00000164934_ENST00000297579|hu_hu|hu_hu_hu_mus_False|68_98 (ssRNA)
RNA: GGGAGUUCUACAGUCCGACGAUCAUACACUUCCCUGCUUCGACUUUUGUCCACAGGAAAGAUUCUAAUAGAUUUAUCAAAGCUGGCAGACACAAAUUCCUUCCCAGUGGGAGAGUAGUCCACAUCAAGUACUGCAGACACGUGCAACAGAGGAUUGAGCAUCA
B22: chr16:32019706:32019707:-_ENSMUSG00000022781_ENSMUST00000023467|mus_mus|FALSE|FALSE (ssRNA)
RNA: GGGAGUUCUACAGUCCGACGAUCCCCUUUCAGUUUAGGCUCUGAACUGAAACACUCCGCACACCAGCCGGUCCUGACUUCUAUAGGAAGCUAAGCAUGUCAAGCUCCUUUCCCAAUGUAAAGAGCUACAUCAAUCAUUUUAUCCAACAGAGGAUUGAGCAUCA

molecular target: T1, UNK ZnF1-3; assay: nsRBNS (natural sequence RNA bind-n-seq); RBNS binding buffer (assumed for nsRBNS): 25 mM Tris pH 7.5, 150 mM KCl, 3 mM MgCl2, 0.01% Triton X-100, 500 ug/ml BSA, 20 U/ml SUPERase-In, 4 C; UNK is unkempt and MSI1 is Musashi-1; names of the RNAs are library labels; protein concentration not given here; high values mean tight binding

Row | Binder | binding signal [enrichment R]
1 | B1 | 1.28
2 | B2 | 0.462
3 | B3 | 1.71
4 | B4 | 0.897
5 | B5 | 0.761
6 | B6 | 0.637
7 | B7 | 1.34
8 | B8 | 1.9
9 | B9 | 0.523
10 | B10 | 0.728
11 | B11 | 0.821
12 | B12 | 1.43
13 | B13 | 0.935
14 | B14 | 0.905
15 | B15 | 0.614
16 | B16 | 0.527
17 | B17 | 0.354
18 | B18 | 0.903
19 | B19 | 0.902
20 | B20 | 1.31
21 | B21 | 1.02
22 | B22 | 1.01
